{"source": "the supplement of paper PMC8728848", "assay_in_all_cases": "glycan array binding signal (z-score within array); higher = stronger binding", "details_in_all_cases": "glycan notation: IUPAC condensed, linker removed", "key": {"Fuc(a1-2)Gal": {"biological_target": "Fuc(a1-2)Gal", "in_short": "(§1)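 The Consortium for Functional Glycomics database supplied 3228 glycan arrays, of which those lacking an available protein sequence were dropped. The binding signal, a within-array Z-score, was averaged across arrays of the same protein sequence and across linkers. Negative scores can be read as non-binding.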"}, "Fuc(a1-2)Gal(b1-3)GalNAc": {"biological_target": "Fuc(a1-2)Gal(b1-3)GalNAc", "in_short": "as §1"}, "[1]": {"biological_target": "Fuc(a1-2)Gal(b1-3)GalNAc(a1-3)[Fuc(a1-2)]Gal(b1-4)Glc", "in_short": "as §1"}, "[2]": {"biological_target": "Fuc(a1-2)Gal(b1-3)GalNAc(a1-3)[Fuc(a1-2)]Gal(b1-4)GlcNAc", "in_short": "as §1"}, "[3]": {"biological_target": "Fuc(a1-2)Gal(b1-3)GalNAc(b1-3)Gal", "in_short": "as §1"}, "[4]": {"biological_target": "Fuc(a1-2)Gal(b1-3)GalNAc(b1-3)Gal(a1-4)Gal(b1-4)Glc", "in_short": "as §1"}, "[5]": {"biological_target": "Fuc(a1-2)Gal(b1-3)GalNAc(b1-4)[Neu5Ac(a2-3)]Gal(b1-4)Glc", "in_short": "as §1"}, "Fuc(a1-2)Gal(b1-3)GlcNAc": {"biological_target": "Fuc(a1-2)Gal(b1-3)GlcNAc", "in_short": "as §1"}, "[6]": {"biological_target": "Fuc(a1-2)Gal(b1-3)GlcNAc(b1-2)Man(a1-3)[Fuc(a1-2)Gal(b1-3)GlcNAc(b1-2)Man(a1-6)]Man(b1-4)GlcNAc(b1-4)GlcNAc", "in_short": "as §1"}, "[7]": {"biological_target": "Fuc(a1-2)Gal(b1-3)GlcNAc(b1-2)Man(a1-3)[Fuc(a1-2)Gal(b1-3)GlcNAc(b1-2)Man(a1-6)]Man(b1-4)GlcNAc(b1-4)[Fuc(a1-6)]GlcNAc", "in_short": "as §1"}, "[8]": {"biological_target": "Fuc(a1-2)Gal(b1-3)GlcNAc(b1-3)Gal(b1-4)Glc", "in_short": "as §1"}, "[9]": {"biological_target": "Fuc(a1-2)Gal(b1-3)GlcNAc(b1-3)GalNAc", "in_short": "as §1"}, "[10]": {"biological_target": "Fuc(a1-2)Gal(b1-3)GlcNAc(b1-3)[Fuc(a1-2)Gal(b1-3)GlcNAc(b1-6)]GalNAc", "in_short": "as §1"}, "[11]": {"biological_target": "Fuc(a1-2)Gal(b1-3)GlcNAc(b1-3)[Gal(b1-4)GlcNAc(b1-6)]Gal(b1-4)Glc", "in_short": "as §1"}, "[12]": {"biological_target": "Fuc(a1-2)Gal(b1-3)GlcNAc(b1-3)[Neu5Ac(a2-6)Gal(b1-4)GlcNAc(b1-6)]Gal(b1-4)Glc", "in_short": "as §1"}, "[13]": {"biological_target": "Fuc(a1-2)Gal(b1-3)GlcNAc6S", "in_short": "as §1"}, "[14]": {"biological_target": "Fuc(a1-2)Gal(b1-3)[Fuc(a1-4)]GlcNAc", "in_short": "as §1"}, "[15]": {"biological_target": "Fuc(a1-2)Gal(b1-3)[Fuc(a1-4)]GlcNAc(b1-2)Man(a1-3)[Fuc(a1-2)Gal(b1-3)[Fuc(a1-4)]GlcNAc(b1-2)Man(a1-3)]Man(b1-4)GlcNAc(b1-4)GlcNAc", "in_short": "as §1"}, "[16]": {"biological_target": "Fuc(a1-2)Gal(b1-3)[Fuc(a1-4)]GlcNAc(b1-2)Man(a1-3)[Fuc(a1-2)Gal(b1-3)[Fuc(a1-4)]GlcNAc(b1-2)Man(a1-6)]Man(b1-4)GlcNAc(b1-4)[Fuc(a1-6)]GlcNAc(b1-4)[Fuc(a1-6)]GlcNAc", "in_short": "as §1"}, "[17]": {"biological_target": "Fuc(a1-2)Gal(b1-3)[Fuc(a1-4)]GlcNAc(b1-3)[Fuc(a1-3)[Gal(b1-4)]GlcNAc(b1-6)]Gal(b1-4)Glc", "in_short": "as §1"}, "[18]": {"biological_target": "Fuc(a1-2)Gal(b1-3)[Fuc(a1-4)]GlcNAc(b1-3)[Gal(b1-4)GlcNAc(b1-6)]Gal(b1-4)Glc", "in_short": "as §1"}, "[19]": {"biological_target": "Fuc(a1-2)Gal(b1-4)Fuc(a1-3)]GlcNAc(b1-2)Man(a1-3)[Fuc(a1-2)Gal(b1-4)[Fuc(a1-3)]GlcNAc(b1-2)Man(a1-6)]Man(b1-4)GlcNAc(b1-4)GlcNAc", "in_short": "as §1"}, "Fuc(a1-2)Gal(b1-4)Glc": {"biological_target": "Fuc(a1-2)Gal(b1-4)Glc", "in_short": "as §1"}, "Fuc(a1-2)Gal(b1-4)Glc6S": {"biological_target": "Fuc(a1-2)Gal(b1-4)Glc6S", "in_short": "as §1"}, "Fuc(a1-2)Gal(b1-4)GlcNAc": {"biological_target": "Fuc(a1-2)Gal(b1-4)GlcNAc", "in_short": "as §1"}, "[20]": {"biological_target": "Fuc(a1-2)Gal(b1-4)GlcNAc(b1-2)Man", "in_short": "as §1"}, "[21]": {"biological_target": "Fuc(a1-2)Gal(b1-4)GlcNAc(b1-2)Man(a1-3)[Fuc(a1-2)Gal(b1-4)GlcNAc(b1-2)Man(a1-6)]Man(b1-4)GlcNAc(b1-4)GlcNAc", "in_short": "as §1"}, "[22]": {"biological_target": "Fuc(a1-2)Gal(b1-4)GlcNAc(b1-2)Man(a1-3)[Fuc(a1-2)Gal(b1-4)GlcNAc(b1-2)Man(a1-6)]Man(b1-4)GlcNAc(b1-4)[Fuc(a1-6)]GlcNAc", "in_short": "as §1"}, "[23]": {"biological_target": "Fuc(a1-2)Gal(b1-4)GlcNAc(b1-2)[Fuc(a1-2)Gal(b1-4)GlcNAc(b1-4)]Man(a1-3)[Fuc(a1-2)Gal(b1-4)GlcNAc(b1-2)Man(a1-6)]Man(b1-4)GlcNAc(b1-4)GlcNAc", "in_short": "as §1"}, "[24]": {"biological_target": "Fuc(a1-2)Gal(b1-4)GlcNAc(b1-3)Gal(b1-4)GlcNAc", "in_short": "as §1"}, "[25]": {"biological_target": "Fuc(a1-2)Gal(b1-4)GlcNAc(b1-3)Gal(b1-4)GlcNAc(b1-2)Man(a1-3)[Fuc(a1-2)Gal(b1-4)GlcNAc(b1-3)Gal(b1-4)GlcNAc(b1-2)Man(a1-6)]Man(b1-4)GlcNAc(b1-4)GlcNAc", "in_short": "as §1"}, "[26]": {"biological_target": "Fuc(a1-2)Gal(b1-4)GlcNAc(b1-3)Gal(b1-4)GlcNAc(b1-3)Gal(b1-4)GlcNAc", "in_short": "as §1"}, "[27]": {"biological_target": "Fuc(a1-2)Gal(b1-4)GlcNAc(b1-3)GalNAc", "in_short": "as §1"}, "[28]": {"biological_target": "Fuc(a1-2)Gal(b1-4)GlcNAc(b1-3)[Fuc(a1-2)Gal(b1-4)GlcNAc(b1-6)]GalNAc", "in_short": "as §1"}, "[29]": {"biological_target": "Fuc(a1-2)Gal(b1-4)GlcNAc(b1-3)[Fuc(a1-3)[Gal(b1-4)]GlcNAc(b1-6)]Gal(b1-4)Glc", "in_short": "as §1"}, "[30]": {"biological_target": "Fuc(a1-2)Gal(b1-4)GlcNAc(b1-6)GalNAc", "in_short": "as §1"}, "[31]": {"biological_target": "Fuc(a1-2)Gal(b1-4)GlcNAc6S", "in_short": "as §1"}}, "note": "The list shows a part of the results."}
{"binder": "Gal-9-hFc (Mus musculus), O08573-2 (protein) MALFSAQSPYINPIIPFTGPIQGGLQEGLQVTLQGTTKSFAQRFVVNFQNSFNGNDIAFHFNPRFEEGGYVVCNTKQNGQWGPEERKMQMPFQKGMPFELCFLVQRSEFKVMVNKKFFVQYQHRVPYHLVDTIAVSGCLKLSFITFQTQNFRPAHQAPMAQTTIHMVHSTPGQMFSTPGIPPVVYPTPAYTIPFYTPIPNGLYPSKSIMISGNVLPDATRFHINLRCGGDIAFHLNPRFNENAVVRNTQINNSWGQEERSLLGRMPFSRGQSFSVWIICEGHCFKVAVNGQHMCEYYHRLKNLQDINTLEVAGDIQLTHVQT", "values": [{"measurement": "glycan array binding signal (z-score)", "setting": "Fuc(a1-2)Gal", "value": -0.248}, {"measurement": "glycan array binding signal (z-score)", "setting": "Fuc(a1-2)Gal(b1-3)GalNAc", "value": -0.533}, {"measurement": "glycan array binding signal (z-score)", "setting": "[1]", "value": -0.211}, {"measurement": "glycan array binding signal (z-score)", "setting": "[2]", "value": -0.235}, {"measurement": "glycan array binding signal (z-score)", "setting": "[3]", "value": 0.235}, {"measurement": "glycan array binding signal (z-score)", "setting": "[4]", "value": -0.29}, {"measurement": "glycan array binding signal (z-score)", "setting": "[5]", "value": -0.358}, {"measurement": "glycan array binding signal (z-score)", "setting": "Fuc(a1-2)Gal(b1-3)GlcNAc", "value": -0.292}, {"measurement": "glycan array binding signal (z-score)", "setting": "[6]", "value": 0.676}, {"measurement": "glycan array binding signal (z-score)", "setting": "[7]", "value": -0.361}, {"measurement": "glycan array binding signal (z-score)", "setting": "[8]", "value": -0.324}, {"measurement": "glycan array binding signal (z-score)", "setting": "[9]", "value": -0.5}, {"measurement": "glycan array binding signal (z-score)", "setting": "[10]", "value": -0.102}, {"measurement": "glycan array binding signal (z-score)", "setting": "[11]", "value": -0.497}, {"measurement": "glycan array binding signal (z-score)", "setting": "[12]", "value": -0.581}, {"measurement": "glycan array binding signal (z-score)", "setting": "[13]", "value": -0.369}, {"measurement": "glycan array binding signal (z-score)", "setting": "[14]", "value": -0.543}, {"measurement": "glycan array binding signal (z-score)", "setting": "[15]", "value": 1.02}, {"measurement": "glycan array binding signal (z-score)", "setting": "[16]", "value": -0.397}, {"measurement": "glycan array binding signal (z-score)", "setting": "[17]", "value": -0.609}, {"measurement": "glycan array binding signal (z-score)", "setting": "[18]", "value": -0.581}, {"measurement": "glycan array binding signal (z-score)", "setting": "[19]", "value": 0.109}, {"measurement": "glycan array binding signal (z-score)", "setting": "Fuc(a1-2)Gal(b1-4)Glc", "value": -0.131}, {"measurement": "glycan array binding signal (z-score)", "setting": "Fuc(a1-2)Gal(b1-4)Glc6S", "value": 0.123}, {"measurement": "glycan array binding signal (z-score)", "setting": "Fuc(a1-2)Gal(b1-4)GlcNAc", "value": -0.448}, {"measurement": "glycan array binding signal (z-score)", "setting": "[20]", "value": -0.05}, {"measurement": "glycan array binding signal (z-score)", "setting": "[21]", "value": 0.415}, {"measurement": "glycan array binding signal (z-score)", "setting": "[22]", "value": 0.215}, {"measurement": "glycan array binding signal (z-score)", "setting": "[23]", "value": -0.005}, {"measurement": "glycan array binding signal (z-score)", "setting": "[24]", "value": -0.528}, {"measurement": "glycan array binding signal (z-score)", "setting": "[25]", "value": -0.349}, {"measurement": "glycan array binding signal (z-score)", "setting": "[26]", "value": -0.425}, {"measurement": "glycan array binding signal (z-score)", "setting": "[27]", "value": -0.339}, {"measurement": "glycan array binding signal (z-score)", "setting": "[28]", "value": -0.126}, {"measurement": "glycan array binding signal (z-score)", "setting": "[29]", "value": -0.013}, {"measurement": "glycan array binding signal (z-score)", "setting": "[30]", "value": -0.217}, {"measurement": "glycan array binding signal (z-score)", "setting": "[31]", "value": -0.362}]}
